Patent US6706740B2, “Fungicidal heterocyclic aromatic amides and their compositions, methods of use and preparation” (Dow AgroSciences LLC, priority 1999, dated 2004)

system: Plasmopara viticola—PLASVI; experiment: whole plant or invertebrate; format: in vivo; conditions: Plasmopara, 24 h, read-out: PLASVI in vivo 1 Day Protectant, 100 ppm, 24 hour protectant, grape; control of fungal infection vs untreated plants

Compared with `COc1ccnc(C(=O)N[C@H]2CC[C@H]3C4CCC(CC4)[C@H]3C2=O)c1O` [Compound 292], `COc1ccnc(C(=O)NC2CC3CCC2C3)c1O` (stereo not drawn) [Compound 287] is higher in pest or weed control at 100 ppm: < 25% for the first, 25 to 74% for the second.

`COc1ccnc(C(=O)NCC2COCCOCCOCCOCCO2)c1O` (stereo not drawn) [Compound 245] and `COc1ccnc(C(=O)NC2COC(C)C2)c1O` (stereo not drawn) [Compound 310] fall in the same range of pest or weed control at 100 ppm: 25 to 74% for the first, 25 to 74% for the second.

`COc1cccc(CNC(=O)c2ncccc2O)c1` [Compound 225] and `COc1cc(NC(=O)c2ncccc2O)cc(OC)c1` [Compound 216] cannot be ordered by pest or weed control at 100 ppm: < 25% for the first, < 25% for the second.

`COc1ccnc(C(=O)NC2C[C@H](C)O[C@](C)(Cc3ccccc3)C2)c1O` (stereo partly drawn) [Compound 313] and `COc1ccnc(C(=O)NC2CCc3ccccc3C2=O)c1O` (stereo not drawn) [Compound 285] cannot be ordered by pest or weed control at 100 ppm: < 25% for the first, < 25% for the second.

Compared with `COc1ccnc(C(=O)NC2CC(C)(C)C3OC3[C@H](C)[C@H]2C)c1O` (stereo partly drawn) [Compound 280], `COc1ccnc(C(=O)N[C@H]2CC(C)(C)[C@H](O)C(C)(C)C2)c1O` [Compound 264, trans-4-HYDROXY-3,3,5,5-TETRAMETHYLPICOLINAMIDE] is lower in pest or weed control at 100 ppm: 25 to 74% for the first, < 25% for the second.

`CCCCC1(C)CCCC(NC(=O)c2nccc(OC)c2O)C1` (stereo not drawn) [Compound 254] and `CCCCC1(C)CC(NC(=O)c2nccc(OC)c2O)CC(C)(C)C1` (stereo not drawn) [Compound 253] cannot be ordered by pest or weed control at 100 ppm: < 25% for the first, < 25% for the second.

First: O=C(Nc1cccc(C(F)(F)F)c1)c1ncccc1O [Compound 214]
Second: CC(NC(=O)c1ncccc1O)c1ccc(Cl)cc1 (stereo not drawn) [Compound 230]
The pest or weed control at 100 ppm of the first is higher: 25 to 74% for the first, < 25% for the second.

First: COc1ccnc(C(=O)N[C@H]2CO[C@@](C)(C(C)CC3=C(C)CCCC3(C)C)OC2)c1O (stereo partly drawn) [Compound 318]
Second: COc1ccnc(C(=O)NC2CC(C)(C)CC(C)(C)C2)c1O [Compound 250]
The pest or weed control at 100 ppm of the first is higher: 25 to 74% for the first, < 25% for the second.

First: C[C@H]1C2CC([C@H]3CCC[C@@H]23)[C@@H]1NC(=O)c1ncccc1O (stereo partly drawn) [Compound 207]
Second: COc1ccnc(C(=O)NC2CCC[C@H]3CC(CCC=C(C)C)=CC[C@@H]23)c1O (stereo partly drawn) [Compound 286]
The pest or weed control at 100 ppm of the first is lower: < 25% for the first, 25 to 74% for the second.

First: COc1ccnc(C(=O)NC2CC(C(F)(F)F)CC(C(F)(F)F)C2)c1O (stereo not drawn) [Compound 256]
Second: COc1ccnc(C(=O)N[C@H]2CC3CC2[C@H](COCc2cccc(C(F)(F)F)c2)C3)c1O (stereo partly drawn) [Compound 294]
The pest or weed control at 100 ppm of the first is lower: < 25% for the first, 25 to 74% for the second.

`COc1ccnc(C(=O)NC2CC(C)(C)C=CC=C2C)c1O` (stereo not drawn) [Compound 278] and `COc1ccnc(C(=O)NC2CC(C)(C)C(OC)C(C)(C)C2)c1O` (stereo not drawn) [Compound 265] fall in the same range of pest or weed control at 100 ppm: 25 to 74% for the first, 25 to 74% for the second.

`COc1ccnc(C(=O)NCCCc2cccnc2)c1O` [Compound 243] and `COc1ccnc(C(=O)NC(C)c2ccc(Cl)cc2)c1O` (stereo not drawn) [Compound 246] cannot be ordered by pest or weed control at 100 ppm: < 25% for the first, < 25% for the second.

`COc1ccnc(C(=O)N[C@@H]2C[C@@H](O[Si](C)(C)C(C)(C)C)O[C@@H](C)[C@@H]2OC)c1O` [Compound 326] and `Cc1ccnc(C(=O)NC2CC(C)(C)CC(C)(C)C2)c1O` [Compound 236] cannot be ordered by pest or weed control at 100 ppm: < 25% for the first, < 25% for the second.

same assay, conditions: Plasmopara, 24 h, read-out: PLASVI in vivo 1 Day Protectant, 100 ppm, grape, 24 hour protectant, % control of fungal infection vs untreated plants

Compared with `COc1ccnc(C(=O)N[C@H]2COC(=O)[C@H](Cc3ccccc3)[C@@H](OC(C)=O)[C@H](C)OC2=O)c1OC(C)=O` [Compound 596], `CCC(=O)Oc1c(OC)ccnc1C(=O)N[C@H]1COC(=O)[C@H](Cc2ccccc2)[C@@H](OC(=O)C(C)C)[C@H](C)OC1=O` [Compound 598] is lower in pest or weed control at 100 ppm: 25 to 74% for the first, < 25% for the second.

First: COc1ccnc(C(=O)N[C@H]2COC(=O)[C@H](Cc3ccccc3)[C@@H](OC(=O)C(C)C)[C@H](C)OC2=O)c1OC(=O)c1ccco1 [Compound 673]
Second: COc1ccnc(C(=O)N[C@H]2COC(=O)[C@H](Cc3ccccc3)[C@@H](OC(=O)C(C)C)[C@H](C)OC2=O)c1OC(=O)Cc1ccccc1 [Compound 648]
The pest or weed control at 100 ppm of the first is higher: 25 to 74% for the first, < 25% for the second.

First: COc1ccnc(C(=O)N[C@H]2COC(=O)[C@H](Cc3ccccc3)[C@@H](OC(=O)C(C)C)[C@H](C)OC2=O)c1OC(=O)C1CCCC1 [Compound 611]
Second: COCCC(=O)Oc1c(OC)ccnc1C(=O)N[C@H]1COC(=O)[C@H](Cc2ccccc2)[C@@H](OC(=O)C(C)C)[C@H](C)OC1=O [Compound 658]
The pest or weed control at 100 ppm of the first is lower: < 25% for the first, 25 to 74% for the second.

`COc1ccnc(C(=O)Nc2cccc(Sc3ccc(C(F)(F)F)cc3)c2)c1OC(C)=O` [Compound 710] and `COc1ccnc(C(=O)Nc2ccc(NC(=O)c3cccc(C(F)(F)F)c3)cc2)c1OC(C)=O` [Compound 719] cannot be ordered by pest or weed control at 100 ppm: < 25% for the first, < 25% for the second.

First: COCCC(=O)Oc1c(OC)ccnc1C(=O)Nc1ccc(C(=O)Nc2cccc(C(F)(F)F)c2)cc1 [Compound 713]
Second: COc1ccnc(C(=O)N[C@H]2COC(=O)[C@H](Cc3ccccc3)[C@@H](OC(=O)C(C)C)[C@H](C)OC2=O)c1OC(=O)OCc1ccccc1 [Compound 695]
The pest or weed control at 100 ppm of the first is higher: 25 to 74% for the first, < 25% for the second.

same assay, conditions: Plasmopara, 24 h, read-out: PLASVI in vivo 1 Day Protectant, 100 ppm, grape, 24 hour protectant; control of fungal infection vs untreated plants

`CO/N=C(/c1ccc(NC(=O)c2nccc(OC)c2O)cc1)c1ccc(C(F)(F)F)cc1` [Compound 409] and `COc1ccnc(C(=O)Nc2ccc(/C(=N/O)c3cccc(C(F)(F)F)c3)cc2)c1O` [Compound 407] cannot be ordered by pest or weed control at 100 ppm: < 25% for the first, < 25% for the second.

`COc1ccnc(C(=O)N[C@H]2COC(=O)[C@H](Cc3ccccc3)[C@@H](OC(=O)C3CCCC3)[C@H](C)OC2=O)c1O` [Compound 391] and `COc1ccnc(C(=O)N[C@H]2COC(=O)[C@H](Oc3ccccc3)[C@@H](OC(=O)C(C)C)[C@H](C)OC2=O)c1O` [Compound 403] cannot be ordered by pest or weed control at 100 ppm: < 25% for the first, < 25% for the second.

`COc1ccnc(C(=O)Nc2ccccc2Oc2ccc(C#N)cc2)c1O` [Compound 419] and `COc1ccc(Oc2ccccc2NC(=O)c2nccc(OC)c2O)cc1` [Compound 429] cannot be ordered by pest or weed control at 100 ppm: < 25% for the first, < 25% for the second.

`COc1ccnc(C(=O)NC2O[C@H](CO)[C@H]3OC(C)(C)O[C@@H]23)c1O` (stereo partly drawn) [Compound 329] and `COc1ccnc(C(=O)N[C@@H]2C(=O)O[C@@H](C)C[C@@H](C)C(=O)O[C@@H]2C)c1O` [Compound 381] cannot be ordered by pest or weed control at 100 ppm: < 25% for the first, < 25% for the second.

Compared with `COc1ccnc(C(=O)N[C@@H]2C[C@@H](O[Si](C)(C)C(C)(C)C)O[C@@H](C)[C@@H]2OCc2ccccc2)c1O` [Compound 327], `COc1ccnc(C(=O)NC(COC(=O)C(Cc2ccccc2)C(C)O[Si](C)(C)C(C)(C)C)C(=O)OC(C)C)c1O` (stereo not drawn) [Compound 357] is higher in pest or weed control at 100 ppm: < 25% for the first, 25 to 74% for the second.

`COc1ccnc(C(=O)Nc2ccc(Oc3ccccc3C)cc2)c1O` [Compound 415] and `COc1cccc(Oc2ccccc2NC(=O)c2nccc(OC)c2O)c1` [Compound 428] cannot be ordered by pest or weed control at 100 ppm: < 25% for the first, < 25% for the second.

`COc1ccnc(C(=O)N[C@H]2CC(=O)OCC(NC(=O)OC(C)(C)C)COC2=O)c1O` (stereo partly drawn) [Compound 379] and `COc1ccnc(C(=O)NC2COC(=O)CC3(CCCCC3)CC(=O)OC2)c1O` [Compound 380] fall in the same range of pest or weed control at 100 ppm: 25 to 74% for the first, 25 to 74% for the second.

`COc1ccnc(C(=O)N[C@@H]2OC[C@@H](OC(C)=O)[C@H](OC(C)=O)[C@H]2OC(C)=O)c1O` [Compound 330] and `COC(=O)C(COC(=O)C(C)Cc1ccccc1)NC(=O)c1nccc(OC)c1O` (stereo not drawn) [Compound 345] fall in the same range of pest or weed control at 100 ppm: 25 to 74% for the first, 25 to 74% for the second.

First: COc1ccnc(C(=O)Nc2ccc(Sc3ccc(C(F)(F)F)cc3)cc2)c1O [Compound 446]
Second: COCc1cc(Oc2ccc(C(F)(F)F)cc2)ccc1NC(=O)c1nccc(OC)c1O [Compound 426]
The pest or weed control at 100 ppm of the first is lower: < 25% for the first, 25 to 74% for the second.

same assay, conditions: Plasmopara, 24 h, read-out: PLASVI in vivo 1 Day Protectant, grape plants, 100 ppm, 24 hour protectant; control of fungal infection vs untreated plants

First: O=C(NCc1ccc(Cl)cc1)c1ccncc1O [Compound 507]
Second: O=C(NCc1ccccn1)c1nc(Br)ccc1O [Compound 483]
The pest or weed control at 100 ppm of the first is higher: 25 to 74% for the first, < 25% for the second.

Compared with `CC(C)C(=O)O[C@H]1[C@H](C)OC(=O)[C@@H](NC(=O)c2cnccc2O)COC(=O)[C@@H]1Cc1ccccc1` [Compound 503], `Cc1ncc(C(=O)N[C@H]2COC(=O)[C@H](Cc3ccccc3)[C@@H](OC(=O)C(C)C)[C@H](C)OC2=O)c(O)n1` [Compound 542] is lower in pest or weed control at 100 ppm: 25 to 74% for the first, < 25% for the second.

First: COc1ccnc(C(=O)NC(COC(=O)C(Cc2ccccc2)C(C)OC(=O)C(C)C)C(=O)OC(C)C)c1OC(C)=O (stereo not drawn) [Compound 589]
Second: CC(C)C(=O)O[C@H]1[C@H](C)OC(=O)[C@@H](NC(=O)c2nnc(O)nc2O)COC(=O)[C@@H]1Cc1ccccc1 [Compound 544]
The pest or weed control at 100 ppm of the first is higher: 25 to 74% for the first, < 25% for the second.

First: Cc1ncc(C(=O)NC2CC(C)(C)CC(C)(C)C2)c(O)n1 [Compound 541]
Second: CC1(C)CC(NC(=O)c2ccncc2O)CC(C)(C)C1 [Compound 505]
The pest or weed control at 100 ppm of the first is lower: < 25% for the first, 25 to 74% for the second.

Compared with `Cc1ccnc(C(=O)NC2CC(C)(C)CC(C)(C)C2)c1OC(=O)C(C)C` [Compound 571], `CC1(C)CC(NC(=O)c2nscc2O)CC(C)(C)C1` [Compound 549] is higher in pest or weed control at 100 ppm: < 25% for the first, 25 to 74% for the second.

First: CC(C)C(=O)O[C@H]1[C@H](C)OC(=O)[C@@H](NC(=O)c2nc(Cl)c(Cl)nc2O)COC(=O)[C@@H]1Cc1ccccc1 [Compound 538]
Second: COc1cc(Br)nc(C(=O)N[C@H]2COC(=O)[C@H](Cc3ccccc3)[C@@H](OC(=O)C3CCCCC3)[C@H](C)OC2=O)c1O [Compound 501]
The pest or weed control at 100 ppm of the first is higher: 25 to 74% for the first, < 25% for the second.

`O=C(Nc1ccccc1Oc1cccc(C(F)(F)F)c1)c1nc(Br)ccc1O` [Compound 492] and `COc1ccnc(C(=O)Nc2ccc(Oc3ccc(C(F)(F)F)cn3)cc2)c1O` [Compound 462] cannot be ordered by pest or weed control at 100 ppm: < 25% for the first, < 25% for the second.

`COc1ccnc(C(=O)Nc2ccc(Oc3cc(Oc4ccccc4)ncn3)cc2)c1O` [Compound 468] was tested, and the pest or weed control at 100 ppm was < 25%.
